The values that follow are results of earlier work, collected in article PMC11006913.

The other results are listed elsewhere or left out.

Some targets named below: ARX (Homo sapiens) (UniProt Q96QS3); ARX L343Q (Homo sapiens) (UniProt Q96QS3); ARX P353L (Homo sapiens) (UniProt Q96QS3); ARX P353R (Homo sapiens) (UniProt Q96QS3); ARX R332H (Homo sapiens) (UniProt Q96QS3); ARX T333N (Homo sapiens) (UniProt Q96QS3).
Details in all cases: PBM; conditions not shown; double strand, one strand shown; scale: upbm affinity estimate (log intensity, higher = more binding, comparable within an allelic series)

As for GAGGCACC [8-mer GAGGCACC], the binding signal was 10.3 in the data set with ARX (Homo sapiens); 10.1 with ARX L343Q (Homo sapiens); 10.3 with ARX P353L (Homo sapiens); 10.1 in the data set with ARX P353R (Homo sapiens); 10.1 with ARX R332H (Homo sapiens); 10.3 in the data set with ARX T333N (Homo sapiens).
Consider CTTCCGCC [8-mer CTTCCGCC], for which the binding signal is 10.1 in the data set with ARX (Homo sapiens); 10.2 with ARX L343Q (Homo sapiens); 10.2 with ARX P353L (Homo sapiens); 10.2 with ARX P353R (Homo sapiens); 10.2 with ARX R332H (Homo sapiens); 10.3 in the data set with ARX T333N (Homo sapiens).
Turning to GTCAATAA [8-mer GTCAATAA], the binding signal is 11.6 in the data set with ARX (Homo sapiens); 10.8 in the data set with ARX L343Q (Homo sapiens); 11.4 with ARX P353L (Homo sapiens); 10.7 in the data set with ARX P353R (Homo sapiens); 10.9 with ARX R332H (Homo sapiens); 11.3 in the data set with ARX T333N (Homo sapiens).
In the case of CAATAATA [8-mer CAATAATA], the binding signal in the data set with ARX (Homo sapiens) was 11.8; with ARX L343Q (Homo sapiens), 10.9; in the data set with ARX P353L (Homo sapiens), 11.4; in the data set with ARX P353R (Homo sapiens) it was 10.8; with ARX R332H (Homo sapiens), 11; in the data set with ARX T333N (Homo sapiens), 11.4.
CCCCAAGG [8-mer CCCCAAGG]: the binding signal is 10.1 with ARX (Homo sapiens); 10.1 with ARX L343Q (Homo sapiens); 10.1 with ARX P353L (Homo sapiens); 10.1 with ARX P353R (Homo sapiens); 10.1 with ARX R332H (Homo sapiens); 10.2 with ARX T333N (Homo sapiens).
For the sequence CGGTGCCC [8-mer CGGTGCCC], the binding signal is 10.3 with ARX (Homo sapiens); 10.2 in the data set with ARX L343Q (Homo sapiens); 10.3 in the data set with ARX P353L (Homo sapiens); 10.2 in the data set with ARX P353R (Homo sapiens); 10.3 with ARX R332H (Homo sapiens); 10.3 in the data set with ARX T333N (Homo sapiens).
GCCCAGGC [8-mer GCCCAGGC]: the binding signal was 10 with ARX (Homo sapiens); 10 in the data set with ARX L343Q (Homo sapiens); 9.98 in the data set with ARX P353L (Homo sapiens); 9.96 in the data set with ARX P353R (Homo sapiens); 9.95 with ARX R332H (Homo sapiens); 10.1 with ARX T333N (Homo sapiens).
In the case of CTCCTCCC [8-mer CTCCTCCC], the binding signal was 10.3 in the data set with ARX (Homo sapiens); 10.2 in the data set with ARX L343Q (Homo sapiens); 10.3 in the data set with ARX P353L (Homo sapiens); 10.1 in the data set with ARX P353R (Homo sapiens); 10.2 with ARX R332H (Homo sapiens); 10.3 with ARX T333N (Homo sapiens).
With GCAACCGC [8-mer GCAACCGC], the binding signal was 10.1 with ARX (Homo sapiens); 10.2 in the data set with ARX L343Q (Homo sapiens); 10.2 with ARX P353L (Homo sapiens); 10.2 with ARX P353R (Homo sapiens); 10.2 with ARX R332H (Homo sapiens); 10.3 with ARX T333N (Homo sapiens).
Turning to CAGGGGGG [8-mer CAGGGGGG], the binding signal is 10.1 with ARX (Homo sapiens); 10.1 with ARX L343Q (Homo sapiens); 10.2 with ARX P353L (Homo sapiens); 9.91 in the data set with ARX P353R (Homo sapiens); 9.93 with ARX R332H (Homo sapiens); 10.2 with ARX T333N (Homo sapiens).
Take GGCGGAAC [8-mer GGCGGAAC]: the binding signal with ARX (Homo sapiens) is 10.2; in the data set with ARX L343Q (Homo sapiens), 10.1; in the data set with ARX P353L (Homo sapiens), 10.2; with ARX P353R (Homo sapiens), 10.1; in the data set with ARX R332H (Homo sapiens) it was 10.1; with ARX T333N (Homo sapiens), 10.2.
As for CTTGGGGC [8-mer CTTGGGGC], the binding signal was 10.1 with ARX (Homo sapiens); 10.2 with ARX L343Q (Homo sapiens); 10.3 with ARX P353L (Homo sapiens); 10.1 in the data set with ARX P353R (Homo sapiens); 10.2 with ARX R332H (Homo sapiens); 10.3 with ARX T333N (Homo sapiens).
With GGAGCTCC [8-mer GGAGCTCC], the binding signal in the data set with ARX (Homo sapiens) is 10; with ARX L343Q (Homo sapiens), 9.95; with ARX P353L (Homo sapiens) it was 10.3; with ARX P353R (Homo sapiens), 10; with ARX R332H (Homo sapiens) it was 10; in the data set with ARX T333N (Homo sapiens) it was 10.1.
As to ATAATTTA [8-mer ATAATTTA], the binding signal is 12.3 in the data set with ARX (Homo sapiens); 10.9 with ARX L343Q (Homo sapiens); 11.9 with ARX P353L (Homo sapiens); 10.8 with ARX P353R (Homo sapiens); 11.1 in the data set with ARX R332H (Homo sapiens); 11.7 in the data set with ARX T333N (Homo sapiens).
With AAATTAAC [8-mer AAATTAAC], the binding signal with ARX (Homo sapiens) is 12.6; with ARX L343Q (Homo sapiens), 10.8; with ARX P353L (Homo sapiens) it was 12; with ARX P353R (Homo sapiens), 10.7; in the data set with ARX R332H (Homo sapiens), 10.9; in the data set with ARX T333N (Homo sapiens), 11.7.
CCCCTGCG [8-mer CCCCTGCG]: the binding signal with ARX (Homo sapiens) was 10.2; with ARX L343Q (Homo sapiens), 10; with ARX P353L (Homo sapiens), 10.2; with ARX P353R (Homo sapiens) it was 9.98; with ARX R332H (Homo sapiens), 10; in the data set with ARX T333N (Homo sapiens), 10.2.
Regarding TCGGCCGA [8-mer TCGGCCGA], the binding signal with ARX (Homo sapiens) was 10.2; with ARX L343Q (Homo sapiens) it was 10.3; with ARX P353L (Homo sapiens) it was 10.4; with ARX P353R (Homo sapiens), 10.2; in the data set with ARX R332H (Homo sapiens), 10.3; with ARX T333N (Homo sapiens) it was 10.4.
As for CCCCCGCG [8-mer CCCCCGCG], the binding signal is 10.2 with ARX (Homo sapiens); 10.1 in the data set with ARX L343Q (Homo sapiens); 10.1 in the data set with ARX P353L (Homo sapiens); 10 with ARX P353R (Homo sapiens); 10.1 in the data set with ARX R332H (Homo sapiens); 10.2 with ARX T333N (Homo sapiens).
Turning to AAGCCCCC [8-mer AAGCCCCC], the binding signal with ARX (Homo sapiens) is 10.3; in the data set with ARX L343Q (Homo sapiens), 10.1; with ARX P353L (Homo sapiens), 10.3; in the data set with ARX P353R (Homo sapiens) it was 9.92; with ARX R332H (Homo sapiens), 9.97; with ARX T333N (Homo sapiens) it was 10.3.
